In PubChem BioAssay AID1745853 (National Center for Advancing Translational Sciences (NCATS), 2022):
This is one part of the list. Further columns of the screen follow, without active or inactive calls. Bridge positions count the residues as written; N and C are the ends. Square brackets hold non-standard residues; d marks the D form. Peptide text beside a SMILES is read from it. NMeY = CN[CH](Cc1ccc(O)cc1)C(=O)O

Key:
Assay in all cases: Primary Screen for Target Class Profiling of Small Molecule Inhibitors of Methyltransferases
[1] = target: Glycine N-methyltransferase (Homo sapiens) (UniProt Q14749); conditions: purified enzyme, MTase-Glo SAH luminescence; measured here: GNMT inhibition; at 40 µM; stronger effect = lower value
In short: (§1)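 Each enzyme was reacted with SAM and its substrate, with compounds tested once at 40 uM; SAH formed was read by MTase-Glo luminescence.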

[2] = target: Guanidinoacetate N-methyltransferase (Homo sapiens) (UniProt Q14353); conditions: purified enzyme, MTase-Glo SAH luminescence; measured here: GAMT inhibition; at 40 µM; stronger effect = lower value
In short: as §1

[3] = target: Histamine N-methyltransferase (Homo sapiens) (UniProt P50135); conditions: purified enzyme, MTase-Glo SAH luminescence; measured here: HNMT inhibition; at 40 µM; stronger effect = lower value
In short: as §1

[4] = target: Nicotinamide N-methyltransferase (Homo sapiens) (UniProt P40261); conditions: purified enzyme, MTase-Glo SAH luminescence; measured here: NNMT inhibition; at 40 µM; stronger effect = lower value
In short: as §1

[5] = target: Phenylethanolamine N-methyltransferase (Homo sapiens) (UniProt P11086); conditions: purified enzyme, MTase-Glo SAH luminescence; measured here: PNMT inhibition; at 40 µM; stronger effect = lower value
In short: as §1
% is set by controls: 0 for no effect and ±100 for the full control effect.

SMILES | activity change, negative = inhibition [1] | activity change, negative = inhibition [2] | activity change, negative = inhibition [3] | activity change, negative = inhibition [4] | activity change, negative = inhibition [5]
O=C(CCCn1ccc2cc(S(=O)(=O)N3CCCC3)ccc21)NCc1cccs1 | -1.42% | 0% | -0.762% | 3.82% | 0.346%
C[C@@H]1O[C@@H](O[C@H]2[C@H](OC(=O)[C@]34CCC(C)(C)C[C@H]3C3=CCC5[C@@]6(C)C[C@H](O)[C@H](O[C@@H]7O[C@H](CO)[C@@H](O)[C@H](O)[C@H]7O)[C@](CO)(C(=O)O)C6CC[C@@]5(C)[C@]3(C)C[C@H]4O)OC[C@H](O)[C@@H]2O)[C@H](O)[C@H](O)[C@H]1O[C@@H]1OC[C@@H](O)[C@H](O[C@@H]2OC[C@](O)(CO)[C@H]2O)[C@H]1O (stereo partly drawn) | 5.8% | 0.163% | 3.42% | -13.9% | 6.64%
O=C(c1ccccn1)N(Cc1cccs1)C1(C(=O)NC2CCCCC2)CCCCC1 | 4.12% | 5.99% | 9.59% | -7.94% | 4.31%
COc1cc(CCCO)ccc1O[C@@H]1O[C@H](CO)[C@@H](O)[C@H](O)[C@H]1O | 0.13% | 1.03% | 9.1% | -11.7% | 4.03%
CCC(C)C1NC(=O)C2CCCN2C(=O)C(NC(C)=O)C(C)OC(=O)C(Cc2ccc(OC)cc2)N(C)C(=O)C2CCCN2C(=O)C(C(C)C)NC1=O (stereo not drawn) (Ac-TPIVP[NMeY](Me); ester 1-C; configuration not given here) | -4.01% | -11.9% | 5.54% | -26.4% | -10.8%
O=C(CCc1nnc2n(Cc3ccccc3Cl)c(=O)c3ccccc3n12)N1CCN(c2ncccn2)CC1 | -3.4% | 1.43% | 10.6% | 4.71% | 1.19%
CNC(=O)C1(N2CCC[C@H]2C(=O)NCCNC(C)=O)CCCCC1 | -3.92% | -6.38% | -3.44% | -9.19% | -4.69%
C[C@H](Oc1cc(-n2cnc3ccc(CN4CCN(C)CC4)cc32)sc1C(N)=O)c1ccccc1C(F)(F)F | -18% | -1.79% | -31.7% | -38.1% | -33.4%
CC1CCC2(NC1)OC1C(O)C3C4CCC5CC(O[C@@H]6O[C@H](CO)[C@@H](O)[C@H](O)[C@H]6O[C@@H]6O[C@@H](C)[C@H](O)[C@@H](O)[C@H]6O)CCC5(C)C4CCC3(C)C1C2C (stereo partly drawn) | -3.32% | -9.5% | 5.52% | -23.4% | -10.1%
Cc1cc(Nc2cc(C)c(C#N)c(NC(C)CCCC(C)(C)O)n2)n[nH]1 (stereo not drawn) |  | -25.5% |  | -31.1% | -45.7%
COCc1ccc(C(=O)NCc2cc(C)cc3c(C)c(C)[nH]c23)o1 | -16.5% | -10.2% | -10.6% | -10.9% | -9.39%
CCCN1C(=O)c2c(C(=O)NCCc3ccc(C)cc3)ncn2CC1(C)C(=O)NCc1ccc(F)cc1 (stereo not drawn) | 1.76% | 0.639% | 5.1% | 5.52% | 5.77%
C[C@H](CN(C)C)Oc1nc(Nc2cc3cccc(Cl)c3cn2)cnc1C#N | -39.3% | 7.7% | -1.13% | -14.1% | -20.2%
O=C(NCC(F)(F)F)c1cn2cc(-c3ccc(C(F)(F)F)cc3)sc2n1 | -2.37% | -7.07% | -2.02% | -8.24% | -4.41%
Cc1ccc(CCNC(=O)c2ccc3c(=O)[nH]c4c(C(=O)NC5CCCC5)sc(=S)n4c3c2)cc1 | -9.78% | 2.66% | -6.89% | -19.1% | -23.1%
O=C(CSc1nnc2n(Cc3ccc(F)cc3)c(=O)c3ccccc3n12)Nc1ccc(F)cc1F | 5.62% | 1.21% | 12.7% | 4.64% | 9.68%
C[C@H](NC(c1cccc(C[P+](=O)O)c1)[C@H](C)O)c1ccc(Cl)c(Cl)c1 (stereo partly drawn) | 3.91% | 7.03% | 8.97% | -7.61% | 5.87%

SMILES | activity change, negative = inhibition [1] | activity change, negative = inhibition [2] | activity change, negative = inhibition [3] | activity change, negative = inhibition [4] | activity change, negative = inhibition [5]
COC(=O)c1ncn2c1C(=O)N(Cc1cccc(Cl)c1)C(C)(C(=O)NC1CCCC1)C2 (stereo not drawn) | -1.06% | 4.23% | 2.54% | 11.1% | -2.17%
CCC(C)N1C(=O)c2cc3sccc3n2CC1(C)C(=O)NC1CCCCCC1 (stereo not drawn) | 3.49% | -6.15% | 9.74% | 6.65% | 3.75%
COCCn1c2c(c(=O)n1-c1ccccc1)CCN(C(=O)c1cccc(C#N)c1)C2 | -6.74% | -16.4% | -3.69% | -14.8% | -4.14%
Cc1cccc(Cn2nc3n(C(C)C)c(=O)c4ccc(C(=O)NC5CCCC5)cc4n3c2=O)c1 | -0.08% | 0.028% | 4.09% | -1.49% | -3.14%
Cc1ccc(C(=O)Cn2nc3n(CCc4ccccc4)c(=O)c4ccccc4n3c2=O)cc1 | 2.94% | 0% | 5.06% | 0.587% | 0.308%
COc1ccc(N2CCN(C(=O)c3ccc4c(=O)nc5c(-c6ccc(F)cc6)n[nH]n5c4c3)CC2)cc1 | -8.61% | 2.74% | -2.4% | -5.88% | -6.69%
CCOC(=O)N1CCC(=C2c3ccc(Cl)cc3CCc3cccnc32)CC1 | -7.56% | 13.5% | 0.325% | -9.41% | 9.51%
C/C=C(/C)C(=O)O[C@H]1C[C@]2(C)O[C@@H]2[C@@H](OC(C)=O)[C@@]2(C)CC[C@@](O)(C(C)C)[C@H]12 | 2.51% | 1.6% | 3.69% | -9.58% | 1.63%
COCCCN1CC2(CCN(C(=O)CCn3cc(C)cn3)CC2)CC1=O | -3.93% | -7.83% | -2.06% | -6.53% | -6.03%
O=C(NC1CCCCC1)N[C@H]1CO[C@H]2[C@@H]1OC[C@H]2O | 0.701% | -4.47% | 1.14% | -3.11% | -7.87%
O=C(Nc1ccc(F)c(C(F)(F)F)c1)Nc1nnc(-c2ccncc2)s1 | -14.1% | -37.7% | -4.59% | -45.5% | -14.9%
O=C(NCc1ccccc1F)c1ccc2c(=O)nc3c(-c4ccccc4)n[nH]n3c2c1 | -20.9% | 1.06% | 3.94% | 1.17% | -1.98%
O=[S+]([O-])(Nc1ccccc1)c1ccc2c(c1)OCCN(Cc1cocn1)C2 | -1.68% | 0.511% | 2.1% | -6.23% | -2.14%
CCC(C(=O)NCc1ccccc1Cl)n1ccc2cc(S(=O)(=O)N3CCCCC3)ccc21 (stereo not drawn) | 1.21% | 0% | -1.29% | 0.784% | 1.49%
Cn1c(=O)c2ccc(C(=O)NC3CCCCC3)cc2n2c(SCC(=O)NC3CCCC3)nnc12 | 4.03% | 3.1% | 4.71% | 8.18% | 7.58%
CCCn1c(=O)c2ccccc2n2c(=O)n(CC(=O)Nc3ccccc3OC)nc12 | 3.98% | 0% | 9.52% | 2.31% | 5.11%
CC(C)CCN1C(=O)c2ccc(-c3ccccc3)n2CC1(C)C(=O)NC1CCC(C)CC1 (stereo not drawn) | 7.75% | 0.69% | 3.48% | 1.88% | 5.92%
